According to PubChem BioAssay AID360 (National Center for Advancing Translational Sciences (NCATS), 2006):
In all, about 48,000 compounds went through this assay and about 550 (1.1%) were called active. Roughly 4% stayed inconclusive and do not appear here. Cut-off read from the data, not from the text of the source: active = potency below about 15 µM; inconclusive = mostly about 16 µM to 33 µM; inactive = weaker than that. The list shows a part of the results.

molecular target: Lysosomal acid glucosylceramidase (Homo sapiens) (UniProt P04062); assay: Glucocerebrosidase; details: purified enzyme, resorufin glucoside fluorescence (screen aimed at inhibitors), 20 min;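 note: the screen sought inhibitors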
Outline: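 Wild-type enzyme at 0.2 nM final in 50mM citric acid/KH2PO4, 10mM sodium taurocholate, 0.01% tween-20, pH 5.9, with resorufin beta-D-glucopyranoside at 30 uM final. Compounds titrated, 20 min at RT, red fluorescence read; AC50 from titration.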
Potency is the fitted concentration of half-maximal effect.

Sequence of UniProt P04062 (P04062 whole entry, looked up): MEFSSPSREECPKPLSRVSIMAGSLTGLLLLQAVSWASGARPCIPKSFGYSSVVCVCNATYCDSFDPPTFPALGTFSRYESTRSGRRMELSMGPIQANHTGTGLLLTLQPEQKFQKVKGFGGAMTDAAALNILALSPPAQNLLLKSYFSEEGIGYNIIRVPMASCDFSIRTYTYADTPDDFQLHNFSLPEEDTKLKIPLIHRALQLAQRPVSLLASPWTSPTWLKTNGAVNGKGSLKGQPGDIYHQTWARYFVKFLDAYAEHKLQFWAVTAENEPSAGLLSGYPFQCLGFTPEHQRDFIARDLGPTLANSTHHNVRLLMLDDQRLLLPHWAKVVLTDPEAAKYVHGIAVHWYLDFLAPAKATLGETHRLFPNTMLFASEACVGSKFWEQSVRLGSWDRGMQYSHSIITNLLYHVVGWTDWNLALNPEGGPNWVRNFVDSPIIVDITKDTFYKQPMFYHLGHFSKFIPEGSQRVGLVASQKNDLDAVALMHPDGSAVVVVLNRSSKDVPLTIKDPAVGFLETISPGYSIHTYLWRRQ

Potency, inactive:
O=C(O)C1CCCCC1C(=O)Nc1ccccn1 (stereo not drawn) > 76.9 µM, CC(C)(C)OC(=O)N[C@H](Cc1ccccc1)C(=O)N1CCC(C(=O)O)CC1 > 76.9 µM, COc1ccccc1N1CCN(C(c2cc3ccc(C)cc3[nH]c2=O)c2nnnn2C2CCCC2)CC1 (stereo not drawn), O=C(NC1CC2CCCC(C1)N2S(=O)(=O)c1ccccc1)c1ccccc1 (stereo not drawn) > 76.9 µM, COc1ccccc1NC(=O)CN1CCC(n2c(C)nc3cc(F)ccc32)CC1 > 76.9 µM, CCCS(=O)(=O)N1CCCC(C(=O)NCCCN(C)c2ccccc2)C1 (stereo not drawn) > 76.9 µM, O=C(NC1CCc2ccccc21)C1CCN(S(=O)(=O)c2ccc(-n3cnnn3)cc2)CC1 (stereo not drawn) > 76.9 µM, CCOC(=O)COc1ccc2nsnc2c1Cl > 76.9 µM, C=CCn1c(C)cc(C(=O)CSc2nnc(NCc3ccccc3)s2)c1C > 76.9 µM, CC(C)(C)NC(=O)C(Cc1ccccc1)NS(=O)(=O)c1cccc2nsnc12 (stereo not drawn) > 76.9 µM, Cc1ccc(S(=O)(=O)NC(=O)COc2ccccc2C(N)=O)cc1 > 76.9 µM, O=C(CN1C(=O)CSc2ccccc21)NCCC1=CCCCC1 > 76.9 µM, Cc1ccc(-c2nc3cccnc3s2)cc1NC(=O)c1ccco1 > 76.9 µM, CC1=Nn2c(nnc2C2CCCCC2)SC1 > 76.9 µM, CC1CCN(S(=O)(=O)c2ccc(S(=O)(=O)NCC3COCCO3)cc2)CC1 (stereo not drawn) > 76.9 µM, CCn1c(SCc2nc3ccccc3nc2C)nnc1-c1cccs1 > 76.9 µM, COc1cc(C2Nc3cccc4cccc(c34)N2)cc(OC)c1O > 76.9 µM, O=C(Nc1ccccc1N1CCN(C(=O)c2ccc(Cl)cc2)CC1)c1cc2ccccc2o1 > 76.9 µM, CCc1ccc2[nH]c(=O)c(CN(CCN(C)C)C(=O)Nc3ccccc3)cc2c1 > 76.9 µM, Cc1cc(Cl)c(S(=O)(=O)Nc2ccccn2)cc1OCC(N)=O > 76.9 µM, Cn1c2c(c(=O)n(C)c1=O)C(c1ccc(O)cc1)Nc1ccccc1O2 (stereo not drawn) > 76.9 µM, O=C(NCC1COc2ccccc2O1)c1ccc(Cl)cc1 (stereo not drawn) > 76.9 µM, O=S1(=O)N=C(N2CCc3ccccc3C2)c2ccccc21 > 76.9 µM, COc1cccc(N(C(=O)c2ccco2)C(C(=O)NC2CCCC2)c2cccnc2)c1 (stereo not drawn) > 76.9 µM, Cc1ccc(C(=O)Nc2nc3ccccc3c(=O)s2)cc1 > 76.9 µM, O=C(CSc1nnnn1-c1ccc2c(c1)OCCO2)OC1CCCCC1 > 76.9 µM, Cc1nnc(SCC(=O)N2CCN(S(=O)(=O)c3ccccc3)CC2)[nH]c1=O > 76.9 µM, Cc1cccc(NC(=O)CSc2nnc(-c3ccc(S(=O)(=O)N4CCCC4)cc3)o2)c1 > 76.9 µM, Cc1[nH]n2c(=O)cc(C(C)C)nc2c1-c1ccccc1 > 76.9 µM, COc1ccccc1Cn1c(=S)[nH]c2cc(C(=O)N3CCN(C)CC3)ccc2c1=O > 76.9 µM, COC(=O)c1c(NS(=O)(=O)c2cccs2)sc2c1CCCC2 > 76.9 µM, c1ccn2c(c1)nc1c2nc2ccccn21 > 76.9 µM, Fc1ccccc1Cn1nnc2c(-n3ccnc3)ncnc21 > 76.9 µM, CC(=O)NC(Cc1c[nH]c2ccccc12)C(=O)OCC(=O)Nc1cc(C)on1 (stereo not drawn) > 76.9 µM, Cc1ccc(C(=O)O)c(C(=O)Nc2nc(C)cs2)c1 > 76.9 µM, COc1cccc(OC)c1C(=O)NCCN1CCN(C(=O)c2c(OC)cccc2OC)CC1 > 76.9 µM, COC(=O)c1cc(NC(=O)C2COc3ccccc3O2)cc(C(=O)OC)c1 (stereo not drawn) > 76.9 µM, CN1CCCCCC1=NC1=C(C#N)CCCC1 > 76.9 µM, CC(=O)Nc1cccc(N(C)S(C)(=O)=O)c1 > 76.9 µM, COc1ccc(-n2nnc3c(=O)n(CC(=O)N4CCCC4)cnc32)cc1 > 76.9 µM, Cc1ccc(-c2nc(N)n(C(=O)c3cccnc3)n2)cc1 > 76.9 µM, CCCCn1c(SCC(=O)NCc2ccco2)nc2ccc(N3CCOCC3)cc2c1=O > 76.9 µM, O=C(OCC(=O)c1ccccc1Br)c1ccccn1 > 76.9 µM, O=C(CN1CCOCC1)N1CCN(S(=O)(=O)c2ccccc2)C1c1ccccc1 (stereo not drawn) > 76.9 µM, Cc1nn2cc(-c3ccc(Cl)cc3)nc2s1 > 76.9 µM, COc1cc(C(=O)Nc2nc(N)n(-c3ccccc3)n2)cc(OC)c1OC > 76.9 µM, CC(=O)c1c(C)[nH]c(C(=O)OCCCCN2C(=O)c3ccccc3C2=O)c1C > 76.9 µM, O=C(NCc1nc2ccccc2[nH]1)c1ccco1 > 76.9 µM, C/C(Cl)=C/Cn1c(SCC(C)C)nc2c1c(=O)[nH]c(=O)n2C > 76.9 µM, C(=N\c1nc2ccccc2n1CCN1CCCCC1)/c1cccs1 > 76.9 µM, CCOCCCn1c(SCC(=O)NC(C)C)nc2ccccc2c1=O > 76.9 µM, CCc1ccccc1N(C)C(=O)CCc1nc(-c2ccc(C)cc2)no1 > 76.9 µM, Cc1cc(C(F)(F)F)nn1CC(=O)Nc1cccnc1 > 76.9 µM, CCOC(=O)C1=C(C)NC(=O)C1(NC(=O)c1cccnc1)C(F)(F)F (stereo not drawn) > 76.9 µM, O=c1c2ccccc2nnn1CSc1ncnc2ccccc12 > 76.9 µM, COc1nc(NCC(C)C)nc(Oc2ccc(OCc3ccccc3)nn2)n1 > 76.9 µM, O=C(CCCCCN1C(=O)c2ccccc2C1=O)NCc1ccccn1 > 76.9 µM, S=c1[nH]nc(-c2cccnc2)o1 > 76.9 µM
